# Among all 310,000 compounds or so, about 2,200 (0.71%) showed an effect of 50% or more. The effect is printed as a negative number. The list shows a part of the results.
# Biological target: human ether-à-go-go-related gene (hERG) potassium channel (human, UniProt Q12809)
# Experiment: primary screen, population patch clamp on CHO cells stably expressing hERG
# human ether-à-go-go-related gene (hERG) potassium channel, sequence (Q12809 whole entry, looked up): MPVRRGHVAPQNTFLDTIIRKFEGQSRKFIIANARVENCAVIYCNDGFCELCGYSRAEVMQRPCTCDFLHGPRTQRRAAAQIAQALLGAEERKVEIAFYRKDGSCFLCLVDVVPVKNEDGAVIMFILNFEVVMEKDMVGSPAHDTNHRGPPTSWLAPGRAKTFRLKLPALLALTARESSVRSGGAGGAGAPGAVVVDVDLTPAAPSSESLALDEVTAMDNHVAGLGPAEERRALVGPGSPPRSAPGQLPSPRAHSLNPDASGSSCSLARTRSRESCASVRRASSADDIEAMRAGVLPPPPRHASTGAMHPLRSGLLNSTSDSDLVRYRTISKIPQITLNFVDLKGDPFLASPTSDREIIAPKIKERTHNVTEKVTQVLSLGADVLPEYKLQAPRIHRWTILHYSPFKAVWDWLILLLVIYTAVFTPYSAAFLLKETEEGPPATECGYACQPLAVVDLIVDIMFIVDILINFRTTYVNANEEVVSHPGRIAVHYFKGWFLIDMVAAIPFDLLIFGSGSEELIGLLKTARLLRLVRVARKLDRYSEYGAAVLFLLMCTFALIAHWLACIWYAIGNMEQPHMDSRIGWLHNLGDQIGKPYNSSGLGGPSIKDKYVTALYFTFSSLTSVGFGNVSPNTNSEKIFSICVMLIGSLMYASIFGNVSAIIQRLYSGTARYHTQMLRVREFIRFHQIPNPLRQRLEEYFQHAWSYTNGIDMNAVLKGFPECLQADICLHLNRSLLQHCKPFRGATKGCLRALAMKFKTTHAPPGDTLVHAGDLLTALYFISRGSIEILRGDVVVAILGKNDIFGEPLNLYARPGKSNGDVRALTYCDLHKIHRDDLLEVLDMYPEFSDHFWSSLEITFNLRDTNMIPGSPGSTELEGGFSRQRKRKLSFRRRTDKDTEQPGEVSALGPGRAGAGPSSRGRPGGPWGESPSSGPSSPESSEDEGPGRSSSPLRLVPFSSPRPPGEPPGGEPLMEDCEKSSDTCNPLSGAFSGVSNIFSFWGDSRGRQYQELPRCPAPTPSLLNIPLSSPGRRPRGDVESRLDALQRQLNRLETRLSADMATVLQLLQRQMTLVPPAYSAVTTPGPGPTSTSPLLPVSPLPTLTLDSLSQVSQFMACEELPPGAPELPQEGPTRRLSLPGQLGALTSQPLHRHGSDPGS
row,SMILES,"hERG current change (%, negative = inhibition) at 1uM [%]"
1,Cn1c(=O)oc2cc(S(=O)(=O)NCCC(=O)NCc3ccccc3Cl)ccc21,7.95
2,COC(=O)CSc1nc(-c2ccccc2)nc2ccccc12,13.4
3,CC1(C)CC(=O)C=C(c2cccnc2)C1,9.06
4,CCCNC(=O)c1ccc(N2CCC3(CC2)CC(c2cccc(Br)c2)=NO3)c(NC(=O)c2ccco2)c1,7.37
5,CC(C)(C)N(NC(=O)c1ccccc1)C(=O)c1cccc(C(=O)N(NC(=O)c2ccccc2)C(C)(C)C)c1,12.7
6,CCOc1ccc(C(=O)CCC(=O)N2CCN(c3ncccn3)CC2)cc1,3.06
7,COc1cc(C2C(C#N)=C(N)OC3=C2C(=O)CC(C)(C)C3)c([N+](=O)[O-])cc1OC (stereo not shown),11.1
8,C=CCn1c(-c2ccc(OC)c(OC)c2)n[nH]c1=S,14.1
9,CN(CCC1CCOCC1)Cc1cn[nH]c1-c1ccc(-c2ccccc2)cc1,-25.9
10,CCOC(=O)C1=C(c2ccccc2)Nc2ncnn2C1c1ccc(OC)c(OC)c1OC (stereo not shown),8.98
11,Cn1c(NC(=O)C[n+]2cc(-c3ccccc3)n3c2CCC3)cc(=O)n(C)c1=O.[Cl-],-1.21
12,CCn1c(=NC(=O)c2ccco2)sc2cccc(F)c21,14.1
13,Cc1ccc(OCC(=O)NNC(=O)Nc2ccc(Cl)cc2)c(Br)c1,16
14,CNCCC(Oc1ccccc1OC)c1ccccc1.Cl (stereo not shown),-13.2
15,CCCC(=O)Nc1ccc(C(=O)NCCCn2ccnc2)cc1,-1.2
16,COc1cc2c(C(=O)NCCCN3CC(C)CC(C)C3)cn(CC(C)C)c(=O)c2cc1OC (stereo not shown),-4.54
17,Cc1ccn(C(=O)c2ccc(NC(=O)C3CC3)cc2)n1,14.2
18,CCc1cccc(NC(=O)Cn2cc(C=O)c3ccccc32)c1,0.416
19,Cc1ccc2nc(Cc3ccc(N)cc3)[nH]c2c1.Cl,13.4
20,Cc1cc(OCC(=O)Nc2ccc(Br)cc2)cc2c1C(=O)CC(C)(C)O2,4.88
21,COc1ccc(CNC(=O)C(C)N=C2NS(=O)(=O)c3ccccc32)cc1OC (stereo not shown),13.7
22,CC(=O)N1N=C(c2cccnc2)OC1c1ccccc1Cl (stereo not shown),3.56

row,SMILES,"hERG current change (%, negative = inhibition) at 1uM [%]"
1,Cc1ccc(-c2nnc(NC(=O)c3c(F)cccc3Cl)s2)cc1,11.2
2,CCC(C)(C)n1nnnc1C(c1ccc2ncccc2c1)N1CCN(Cc2ccc3c(c2)OCO3)CC1 (stereo not shown),3.29
3,COc1ccccc1CNC(=O)[C@H](C)NC(=O)C1CCN(C(=O)[C@H](CCSC)NC(=O)OC(C)(C)C)CC1,4.1
4,O=C1C(C2=C(O)c3ccccc3C2=O)=Nc2ccccc21,-12.6
5,O=C(NCCO)c1cc2ccccc2cc1O,3.96
6,CC1CCCCN1C(=O)Cn1c(=O)oc2ccccc21 (stereo not shown),-10.5
7,O=C(Nc1ccccc1C(=O)NCCc1ccccc1)c1cnccn1,8.26
8,Cc1nc(SCC(=O)Nc2ccccc2Cl)oc1C,8.91
9,CC1(C)Cc2nc3sc(C(=O)O)c(N)c3cc2CS1,12.1
10,COc1ccc(NC(=O)CN(C)C(=O)c2ccc3[nH]c4c(c3c2)CC(C)CC4)cc1 (stereo not shown),15.9
11,CN(CC(=O)Nc1ccc(Cl)c(C(F)(F)F)c1)C(=O)c1cc(=O)[nH]c2ccccc12,14.9
12,N=c1c(C(=O)NCc2ccccc2)cc2c(=O)n3ccccc3nc2n1Cc1ccco1,-75.5
13,Cc1ccc(CS(=O)(=O)Cc2ccc(C(=O)NCc3cccs3)o2)cc1,2.11
14,COc1ccc(OC(=O)c2cnc3n(c2=O)CCS3)cc1,9.86
15,CCOc1ccc(OCC)c(NC(=O)CN(C)S(=O)(=O)c2cccc3nsnc23)c1,2.37
16,COc1ccc(CC(=O)Nc2cccc(C(=O)Nc3cccc(C)c3)c2)cc1,-0.719
17,CSCCC(NS(=O)(=O)c1cccs1)C(=O)NCc1ccc(C)cc1 (stereo not shown),5.07
18,CCCCCn1nc(C)c(/C=N/NC(=O)c2ccoc2C)c1C,-3.38
19,Cc1c(CN2CCN(CC(C)C)C(CCO)C2)[nH]c2ccc(Cl)cc12 (stereo not shown),18.8
20,Brc1ccccc1C1Nc2cccc3cccc(c23)N1,1.91
21,COc1ccc(C(CC(=O)NCCCN2CCOCC2)NS(=O)(=O)c2ccc(C)cc2)cc1 (stereo not shown),-1.31
